Test results reported in the supplement of paper PMC3334620.
Over roughly 33,000 sequences, “E-score (-0.5 to 0.5)” has its median near -0.043; the highest 2% begin near 0.37. The list shows a part of the results.

What follows are sequences tested against T1, Upc2 (UniProt Q12151) (assay: PBM E-score (8-mer binding enrichment) (E-score (-0.5 to 0.5)); higher = stronger / more preferred TF binding; most listed sequences are background and not binding sites). Settings: protein concentration: 200 nM; construct: GST-full length.
T1 sequence: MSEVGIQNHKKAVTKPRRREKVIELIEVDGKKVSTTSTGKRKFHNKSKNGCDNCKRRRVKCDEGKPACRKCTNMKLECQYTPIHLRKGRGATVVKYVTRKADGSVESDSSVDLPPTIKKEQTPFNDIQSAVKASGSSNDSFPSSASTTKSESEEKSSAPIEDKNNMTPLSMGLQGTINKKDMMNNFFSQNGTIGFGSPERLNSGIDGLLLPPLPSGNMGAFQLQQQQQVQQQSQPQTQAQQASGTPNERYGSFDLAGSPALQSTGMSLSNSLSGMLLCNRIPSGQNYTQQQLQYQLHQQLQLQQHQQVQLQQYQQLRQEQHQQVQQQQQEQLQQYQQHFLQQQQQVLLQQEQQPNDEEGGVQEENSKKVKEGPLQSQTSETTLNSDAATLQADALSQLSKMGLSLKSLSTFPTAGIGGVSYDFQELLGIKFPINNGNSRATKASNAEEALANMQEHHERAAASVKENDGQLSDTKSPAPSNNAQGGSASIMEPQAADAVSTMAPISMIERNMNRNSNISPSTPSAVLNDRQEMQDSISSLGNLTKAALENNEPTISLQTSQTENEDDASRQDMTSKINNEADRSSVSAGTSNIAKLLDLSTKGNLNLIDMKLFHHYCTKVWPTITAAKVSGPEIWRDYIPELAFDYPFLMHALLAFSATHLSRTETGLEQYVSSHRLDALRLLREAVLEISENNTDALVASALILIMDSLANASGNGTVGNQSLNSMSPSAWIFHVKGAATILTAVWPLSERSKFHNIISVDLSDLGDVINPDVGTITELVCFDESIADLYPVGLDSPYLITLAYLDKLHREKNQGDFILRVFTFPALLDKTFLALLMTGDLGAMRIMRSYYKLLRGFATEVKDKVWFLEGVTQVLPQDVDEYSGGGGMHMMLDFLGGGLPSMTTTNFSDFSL
Protocol: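 Universal 'all 10-mer' protein binding microarrays (Agilent AMADID 015681) probed with GST-tagged S. cerevisiae TFs (full-length or DBD) made by in vitro transcription/translation (PURExpress), about 100-200 nM. Bound TF was detected with fluorescent anti-GST. Each ungapped 8-mer (which stands for itself and its reverse complement) is scored by the PBM enrichment score (E-score), a modified Wilcoxon-Mann-Whitney statistic from -0.5 to +0.5, computed with the Universal PBM Analysis Suite. Scale: above 0.35 generally sequence-specific binding.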
TCTCGGCA was tested, and the “PBM E-score” value was 0.00444. AACGGGAG was tested, and the “PBM E-score” value was 0.201. With TCACGCGA the “PBM E-score” value was 0.103. GCACGCAC was tested, and the “PBM E-score” value was -0.0969. For AGGGGAGA, the “PBM E-score” value was -0.126. For AGTGTACA, the “PBM E-score” value was -0.0815. With TTTTAAAA the “PBM E-score” value was 0.135. For CGCAGTCC, the “PBM E-score” value was 0.0548. With GAGGCTTA the “PBM E-score” value was -0.239. With CTTCCAAC the “PBM E-score” value was -0.109. GTGGCTTA was tested, and the “PBM E-score” value was -0.116. CGGTAGGC was tested, and the “PBM E-score” value was -0.0982. In the case of CGTAGCAA, the “PBM E-score” value is reported as 0.282. With GTCAAGTA the “PBM E-score” value was -0.0363. For AAAGAGTG, the “PBM E-score” value was 0.0172. With CACTGCGC the “PBM E-score” value was -0.2. With AGTAAAAG the “PBM E-score” value was 0.168. For GTCCACTA, the “PBM E-score” value was -0.304. CGAAAGTC was tested, and the “PBM E-score” value was 0.0808. With CAAAAGTG the “PBM E-score” value was -0.142. CGCTGTCC was tested, and the “PBM E-score” value was 0.146. GAGACTCC was tested, and the “PBM E-score” value was -0.092. For AGGAGAGA, the “PBM E-score” value was -0.237. With TGGAAGAA the “PBM E-score” value was -0.105. For ATCATGCC, the “PBM E-score” value was -0.154. For ACTCTACC, the “PBM E-score” value was 0.018. GGTGGTAA was tested, and the “PBM E-score” value was -0.0378. With AACCCAGG the “PBM E-score” value was -0.155. In the case of AGTCGGTA, the “PBM E-score” value is reported as 0.0632. ATTGCGAA was tested, and the “PBM E-score” value was -0.145. With GCGTGGAA the “PBM E-score” value was -0.0163. GTACAAAC was tested, and the “PBM E-score” value was 0.248. For GGCATGTA, the “PBM E-score” value was 0.224. TATGGTAA was tested, and the “PBM E-score” value was 0.0759. With ATAATTAG the “PBM E-score” value was -0.0986. In the case of ACCATGTG, the “PBM E-score” value is reported as -0.0548. With TCCCATCA the “PBM E-score” value was -0.258. For AAAGCGTC, the “PBM E-score” value was -0.102. For AGCCCGGC, the “PBM E-score” value was -0.0461. With AAAGTACT the “PBM E-score” value was 0.0188. For CCCACAGC, the “PBM E-score” value was 0.0191. In the case of CATCCACC, the “PBM E-score” value is reported as -0.1. With GTAAGAAA the “PBM E-score” value was 0.144. With CCAGACCG the “PBM E-score” value was 0.108. For CATAACCA, the “PBM E-score” value was 0.0037. With ATTAGTGA the “PBM E-score” value was -0.00456. GTGAGTCA was tested, and the “PBM E-score” value was -0.222. AACGAGTC was tested, and the “PBM E-score” value was 0.414. For AGCATTGG, the “PBM E-score” value was -0.219. AGCCTCGC was tested, and the “PBM E-score” value was 0.103. ACATGATG was tested, and the “PBM E-score” value was -0.247. AATTACGG was tested, and the “PBM E-score” value was 0.0727. In the case of ATAGAATC, the “PBM E-score” value is reported as 0.0733. AATGAAAT was tested, and the “PBM E-score” value was 0.147. In the case of AACTCGGT, the “PBM E-score” value is reported as 0.0753. TCTCTGAA was tested, and the “PBM E-score” value was -0.158. GCTCTACC was tested, and the “PBM E-score” value was -0.101. For AAAAAGAA, the “PBM E-score” value was -0.0172. AGTATCCC was tested, and the “PBM E-score” value was 0.0247. In the case of AACATTGT, the “PBM E-score” value is reported as 0.0538. AACCCATA was tested, and the “PBM E-score” value was 0.176. With GCTCCACC the “PBM E-score” value was -0.0776. In the case of ACCCCTCG, the “PBM E-score” value is reported as 0.129. With AGCTCAAC the “PBM E-score” value was -0.0394. AGTGACTG was tested, and the “PBM E-score” value was -0.174. ACCGTCGG was tested, and the “PBM E-score” value was 0.0664. For ATCGCCGG, the “PBM E-score” value was -0.13. In the case of GTTTTTAA, the “PBM E-score” value is reported as 0.102. AAAATCTA was tested, and the “PBM E-score” value was -0.00788. In the case of AAACTCTA, the “PBM E-score” value is reported as -0.0759. With CAGGTTAA the “PBM E-score” value was 0.168. In the case of CTATGAGA, the “PBM E-score” value is reported as -0.221. With AGTGCTGC the “PBM E-score” value was 0.022. For CAGTTATC, the “PBM E-score” value was -0.128. In the case of AGCGGCCA, the “PBM E-score” value is reported as -0.256. CGATCCCC was tested, and the “PBM E-score” value was 0.0691. With AAAATAGA the “PBM E-score” value was -0.00515. For ATTCAGTC, the “PBM E-score” value was -0.0361. AAATCACA was tested, and the “PBM E-score” value was -0.0177. GATGCTAC was tested, and the “PBM E-score” value was 0.101. In the case of CCCGTGCC, the “PBM E-score” value is reported as -0.0508. ACGAGAGA was tested, and the “PBM E-score” value was 0.343. For ATGATGGC, the “PBM E-score” value was -0.228. For AGCTACAA, the “PBM E-score” value was -0.0549. In the case of CTGGAACA, the “PBM E-score” value is reported as 0.00095. For GCGCTGCA, the “PBM E-score” value was -0.0902. GTCCCGCA was tested, and the “PBM E-score” value was -0.212. In the case of CGCGCTGC, the “PBM E-score” value is reported as -0.0738. CCCGCTGC was tested, and the “PBM E-score” value was -0.234. With ACAGGGCA the “PBM E-score” value was -0.0786. GTCTTATA was tested, and the “PBM E-score” value was 0.251. In the case of GGTATTCA, the “PBM E-score” value is reported as -0.00633. In the case of CACCTGTC, the “PBM E-score” value is reported as -0.166. AGCACTCC was tested, and the “PBM E-score” value was -0.182.
